From the supplement of paper PMC3334620
Whole data set: some 33,000 sequences, median “E-score (-0.5 to 0.5)” near -0.035, cut for the highest 2% near 0.35. The list shows a part of the results.

Target: T1, Pdr3 (UniProt P33200)
T1 sequence: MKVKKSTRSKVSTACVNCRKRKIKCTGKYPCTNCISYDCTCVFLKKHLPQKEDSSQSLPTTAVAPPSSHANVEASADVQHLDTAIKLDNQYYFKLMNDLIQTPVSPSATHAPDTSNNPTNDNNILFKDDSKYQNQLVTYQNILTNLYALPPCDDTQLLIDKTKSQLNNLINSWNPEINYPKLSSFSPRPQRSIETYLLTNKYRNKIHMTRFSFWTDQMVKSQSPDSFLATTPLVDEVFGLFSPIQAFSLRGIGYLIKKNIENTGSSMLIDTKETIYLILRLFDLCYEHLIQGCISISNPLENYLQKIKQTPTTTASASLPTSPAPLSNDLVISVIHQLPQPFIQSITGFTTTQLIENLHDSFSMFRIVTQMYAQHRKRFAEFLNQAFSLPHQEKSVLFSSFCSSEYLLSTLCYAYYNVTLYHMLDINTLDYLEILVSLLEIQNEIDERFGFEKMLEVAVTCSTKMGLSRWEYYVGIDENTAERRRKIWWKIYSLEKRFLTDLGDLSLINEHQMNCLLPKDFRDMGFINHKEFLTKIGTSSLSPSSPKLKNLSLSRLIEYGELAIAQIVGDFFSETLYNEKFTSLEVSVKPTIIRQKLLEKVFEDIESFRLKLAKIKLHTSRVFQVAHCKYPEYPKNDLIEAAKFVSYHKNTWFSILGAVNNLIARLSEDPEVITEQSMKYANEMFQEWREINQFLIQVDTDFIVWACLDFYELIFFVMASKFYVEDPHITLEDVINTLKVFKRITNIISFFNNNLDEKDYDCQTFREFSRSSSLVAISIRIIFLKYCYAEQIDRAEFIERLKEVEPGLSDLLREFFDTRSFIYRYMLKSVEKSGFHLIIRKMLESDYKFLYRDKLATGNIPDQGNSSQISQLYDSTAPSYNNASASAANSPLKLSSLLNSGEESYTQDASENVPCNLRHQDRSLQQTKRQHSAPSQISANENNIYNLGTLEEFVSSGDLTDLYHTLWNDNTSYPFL
Test: PBM E-score (8-mer binding enrichment) (E-score (-0.5 to 0.5)); higher = stronger / more preferred TF binding; most listed sequences are background and not binding sites
Settings: protein concentration: 200 nM; construct: GST-full length
Procedure, shortened: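 PURExpress in vitro transcription/translation supplied GST-tagged yeast transcription factors, either full-length or DNA-binding domain. Applied at about 100-200 nM to universal all-10-mer Agilent arrays double-stranded by primer extension, the bound protein was detected with fluorescent anti-GST. E-scores, modified Wilcoxon-Mann-Whitney statistics, were given by the Universal PBM Analysis Suite to ungapped eight-base words pooled with their reverse complements after masliner normalisation.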

Sequence | PBM E-score
TACGTGCA | 0.0826
CACATCAA | 0.00696
GGGTCGTA | -0.0591
GACACGAA | -0.00782
AGCTCTAG | -0.0956
GAATCAAC | 0.179
CATGGGTC | -0.0685
GCATGCAC | -0.0969
CCGAATCA | 0.172
GCCATTAA | 0.0232
ACAGTCCC | -0.033
TAGGGGAA | -0.157
ATGGAGTG | -0.146
ACTATCAT | 0.061
AAGTGAAG | -0.0932
AAACGGCT | -0.0409
CGTGCCTA | -0.144
CTCAGGCC | -0.178
ATCCCCCC | -0.285
ACCGCAAC | 0.254
CGTATATC | -0.0754
CGCCAGGC | 0.185
CTTTTCCA | -0.215
AGTACTCG | 0.0205
ACTCCGCT | 0.14

Sequence | PBM E-score
AGGTTAGA | -0.00179
AGTTCACA | -0.134
TCAATCAA | 0.177
AAGAGTCT | -0.203
CAAGGTCG | 0.0589
CGAGTTAA | 0.121
CACTGAAG | 0.151
CGGGCCTC | 0.0999
AATTGGTA | -0.0654
CCATTAGC | -0.223
CGATTCAG | -0.15
GCTGTCTA | -0.284
TACCACAA | -0.112
AGCAGGCA | -0.21
AGTCGATC | 0.121
TCCTAACA | -0.19
AAAACACC | -0.0175
ACGACAAA | 0.0239
CTTCAGCC | -0.229
ACGTAGCG | -0.163
ATTTTACA | -0.287
CTCCCCTA | 0.0177
CGCTTGCA | -0.00607
CGCCGCAG | 0.066
TAGCCTCA | -0.213

Sequence | PBM E-score
CTCAATCC | 0.0935
GGCGACTA | -0.0929
ACGCCAGC | -0.133
TCCCGACA | 0.148
AGACTTCA | -0.354
AATAAGAA | 0.164
AAAGAATA | -0.00807
GTCCTCTA | -0.222
ATGGGCCC | 0.196
CAACGGAC | 0.261
CTTCGTGC | -0.219
AGGGCGTC | 0.0756
CATCAAAG | -0.031
AAACCTTA | -0.0635
AAACTATA | 0.129
ACTACGTG | -0.181
CAGTCCGC | 0.19
CACCGTGG | -0.0232
AGCTAAAG | -0.244
GGCTGCGA | 0.117
CCGCTGCC | 0.193
CAAATACC | 0.00764
ATGCGAGA | -0.174
ACGACGCC | -0.0129
GTGATTCA | -0.131

Sequence | PBM E-score
CGGCGGGC | 0.218
GGTAGTTA | -0.0665
ACGCTGGG | -0.0598
AGGCAAGG | -0.313
CGGCAGGC | 0.0258
ACATATAC | -0.0316
ACTGGGAT | -0.0867
ATGGACGG | 0.31
CGTACGAC | -0.265
CAGATCAC | 0.027
GGAGTCGA | -0.00176
CGTAATTA | -0.0446
CGATGGAG | 0.189
CCGAGCTA | 0.183
CACGAGGA | -0.107
CATGCAAG | -0.053
AGATGAGC | -0.234
TATGTAGA | -0.182
GCACGCAA | -0.0728
CGCCTAGC | -0.263
CGCCTACA | -0.101
AGTAACAA | -0.13
CTACAGAG | -0.187
GGAATATA | 0.277
ATGGTGGC | -0.169

Sequence | PBM E-score
GGAACGGA | 0.431
AAAAGTGA | 0.029
GAGTCATA | -0.0466
ATATTTAC | 0.0408
CTGCGTCC | -0.0157
CAATCGGG | 0.213
GGCTTTAA | -0.141
ATCGTGAG | -0.0865
CGCGTCAA | -0.0248
ATACTAAA | 0.142
AGCCAAAC | 0.126
CGAATCTC | 0.194
ATCCTGTA | -0.163
AGCAAATG | -0.189
TAGAGACA | -0.214
GGCATTAC | 0.27
GAGATCTC | 0.111
CGAAAAGA | 0.103
ATGTAGAA | -0.102
AAATCGCC | 0.0775
CAATCAAG | -0.189
CACAGTTA | -0.0127
ACGATACC | 0.129
CGTGTCTC | -0.024
AAGCAGAT | 0.0624

Sequence | PBM E-score
CGTACACA | -0.0107
TGCGATAA | 0.0592
ATGTCACC | 0.138
TGCAAACA | -0.317
ACTAGGCG | 0.00889
CGAATCGA | 0.234
ATCCCGCG | 0.465
CGTTGCTC | 0.0359
GTTGTAGA | -0.177
GAATGTCC | 0.163
AAGGATCA | -0.14
ATGAAGAC | -0.0295
AACTTTAA | 0.162
TAGCTGGA | -0.304
GAAAGCCA | -0.104
CTGTCACA | -0.276
AAAAATTA | 0.0222
ATGCGTGC | -0.00612
ATGAGTTG | 0.0717
GGGAGCTA | -0.0835
CGTACGCC | -0.0877
ATAAGGCA | -0.134
CTCGTGGA | 0.0284
GAGCGTGA | -0.128
CCTGGCTA | -0.245

Sequence | PBM E-score
CACAAGGC | -0.13
CAGGAGTC | -0.116
CCCTCAGG | -0.186
ACTGAAAT | -0.13
ATGATGTC | 0.116
AGTTACTG | 0.0448
AGAAATGG | -0.0712
CACATGTG | -0.171
CATCAACA | 0.136
AGACTGGA | -0.213
AATGTCCG | 0.294
TGAGCTCA | 0.0858
AAGCCCAA | -0.123
CACAGAGA | -0.136
CAATCTAG | -0.00886
CAACCGGA | 0.379
CGGTAAAA | 0.195
GACCTGCC | 0.0141
CACTAACG | -0.161
CCTTCCTC | -0.201
GCGTGACC | -0.0544
GAATATTC | 0.189
